{"source": "PubChem BioAssay AID485281", "about": "(National Center for Advancing Translational Sciences (NCATS), 2010)", "note": "The whole screen tested about 350,000 compounds, of which about 260 (0.074%) were called active. Inconclusive means that the source gave no clear call. Such entries were picked first, then a sample of the others. Calls follow the shape of the dose curve; as a rule, active = well fitted inhibition curve with a large enough effect; inconclusive = small, poorly fitted or top-dose-only effect; inactive = no such curve, though single readings can be large or run the other way. A potency beside an inconclusive call is a rough fit, not a confirmed value. Potency is read from the fitted curve at half-maximal effect; tags tell the direction and shape of the fitted curve.", "data": [{"molecular_target": "Ferritin light chain (Equus caballus) (UniProt P02791)", "sequence (P02791 whole entry, looked up)": "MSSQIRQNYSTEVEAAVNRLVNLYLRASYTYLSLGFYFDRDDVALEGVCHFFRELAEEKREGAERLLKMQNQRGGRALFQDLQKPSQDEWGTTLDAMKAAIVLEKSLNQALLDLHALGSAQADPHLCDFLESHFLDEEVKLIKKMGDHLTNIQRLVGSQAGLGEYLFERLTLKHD", "experiment": "qHTS Assay for Identification of Novel General Anesthetics; also: nearly all actives have a fitted effect of over 20% in size", "details": "apoferritin/1-aminoanthracene competitive binding, fluorescence; series mostly up to 77.5 µM", "in_short": "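Horse-spleen apoferritin (10 uM) in 50% saturated 1-aminoanthracene in PBS was incubated 10 min at room temperature with compound. Fluorescence (ex 380, em 535 nm) was normalized to free and bound 1-AMA, with concentration-response fitted by a four-parameter Hill equation.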", "values": [{"smiles": "O=C(Cc1c(F)cccc1Cl)Nc1ccc(S(=O)(=O)NCC2CCCO2)cc1", "note": "(configuration not stated)", "Potency": "inconclusive: 22.4 µM [inhibitor, partial curve]"}, {"smiles": "CC1CCCC(C)N1/N=C/c1ccc(N(C)C)cc1", "note": "(configuration not stated)", "Potency": "inconclusive: 39.8 µM [inhibitor, partial curve]"}, {"smiles": "CCCn1nnc2sc3c(c2c1=O)CCC(C)C3", "note": "(configuration not stated)", "Potency": "inconclusive: 20 µM [inhibitor, partial curve]"}, {"smiles": "CCOCCCNS(=O)(=O)c1ccc(NC(=O)Cc2c(F)cccc2Cl)cc1", "Potency": "inconclusive: 11.2 µM [inhibitor, full curve, poor fit]"}, {"smiles": "Cc1nc2nc(SCC(=O)N(Cc3ccccc3)C(C)C)nn2c(C)c1Cc1ccccc1Cl", "Potency": "inconclusive: 3.98 µM [inhibitor, full curve]"}, {"smiles": "NS(=O)(=O)c1cc2c(cc1Cl)N[C@@H](CC1CCCC1)NS2(=O)=O", "Potency": "inactive"}, {"smiles": "CC(C(=O)Nc1ccc(N2CCOCC2)cc1)N1C(=O)c2ccccc2C1=O", "note": "(configuration not stated)", "Potency": "inactive"}, {"smiles": "Cc1ccc(C)c(CN2CCCNC2=O)c1", "Potency": "inconclusive: 17.8 µM [inhibitor, partial curve]"}, {"smiles": "CSc1ccc(CCNc2ncnc3onc(-c4ccc(Cl)cc4)c23)cc1", "Potency": "inactive"}, {"smiles": "CCOc1cccc(Nc2ccc([N+](=O)[O-])cn2)c1", "Potency": "inconclusive: 31.6 µM [inhibitor, partial curve]"}, {"smiles": "CCn1cc(C(=O)N2CCc3ccccc32)c(=O)c2cc(S(=O)(=O)N3CCOCC3)ccc21", "Potency": "inconclusive: 39.8 µM [inhibitor, partial curve]"}, {"smiles": "Cc1onc(-c2ccccc2Cl)c1C(=O)OCC(=O)Nc1ccc2c(c1)OCO2", "Potency": "inactive"}, {"smiles": "Cc1cc(NC(=O)CC(C)C)c(=O)n(Cc2ccccc2F)c1", "Potency": "inconclusive: 39.8 µM [inhibitor, partial curve]"}, {"smiles": "O=C(CSc1nnc([C@@H]2CCCN2)o1)c1ccc(Cl)cc1", "Potency": "inconclusive: 28.2 µM [inhibitor, single point]"}, {"smiles": "Oc1ccc2ccccc2c1/C=N/c1nc2c(s1)CCCC2", "Potency": "inconclusive: 31.6 µM [inhibitor, partial curve, poor fit]"}, {"smiles": "Cc1ccsc1C1Nc2ccc3ncccc3c2C2=C1C(=O)CC(C)(C)C2", "note": "(configuration not stated)", "Potency": "inconclusive: 12.6 µM [inhibitor, partial curve]"}, {"smiles": "COc1cccc(CN(C)C(=O)C23CC4CC(CC(C4)C2)C3)c1", "Potency": "inconclusive: 31.6 µM [inhibitor, single point]"}, {"smiles": "C/C(NCc1cccnc1)=C(\\C#N)C(=O)NCc1ccccc1", "Potency": "inconclusive: 39.8 µM [inhibitor, single point]"}, {"smiles": "O=C(CCC1N=C2c3ccccc3N=C(SCc3ccc(F)cc3)N2C1=O)NCc1ccco1", "note": "(configuration not stated)", "Potency": "inconclusive: 28.2 µM [inhibitor, single point]"}, {"smiles": "COc1ccc(CNC(=O)c2nc(S(=O)(=O)Cc3ccccc3)ncc2Cl)cc1", "Potency": "inactive"}, {"smiles": "CCOc1ccccc1-n1c(SCC(=O)Nc2nccs2)nnc1-c1ccoc1C", "Potency": "inconclusive: 22.4 µM [inhibitor, partial curve]"}, {"smiles": "N#Cc1cc2[nH]c3ccccc3c2[n+](-c2ccc([N+](=O)[O-])cc2)c1N", "Potency": "inconclusive: 31.6 µM [inhibitor, partial curve]"}, {"smiles": "Cc1cccc(NC(=O)/C(=C\\c2ccco2)NC(=O)c2cccs2)c1", "Potency": "inactive"}, {"smiles": "O=C(COC(=O)c1ccccn1)Nc1cccc(Cl)c1Cl", "Potency": "inconclusive: 25.1 µM [inhibitor, partial curve]"}, {"smiles": "COc1ccc(CNC(=O)C2=C(C)C(=O)OC23CCN(C(C)=O)CC3)cc1", "Potency": "inconclusive: 3.98 µM [inhibitor, full curve, poor fit]"}, {"smiles": "COC(=O)CSC(C(=O)Nc1ccc(C)c(C)c1)c1ccccc1", "note": "(configuration not stated)", "Potency": "inconclusive: 39.8 µM [inhibitor, partial curve]"}, {"smiles": "C=CCCCCCCCCCCCC(O)CC(O)CO", "note": "(configuration not stated) (tested in a mixture with another compound)", "Potency": "inconclusive: 50.1 µM [inhibitor, single point]"}, {"smiles": "COc1ccc(C(=O)c2ccc(OC)c3cccc(O)c23)cc1OC", "Potency": "inconclusive: 3.55 µM [inhibitor, partial curve]"}, {"smiles": "O=S(=O)(NCCc1ccncc1)c1ccc(Br)cc1", "Potency": "inconclusive: 56.2 µM [inhibitor, partial curve, poor fit]"}, {"smiles": "CCOC(=O)c1cnc2ccc(Cl)cc2c1Nc1ccc(OCC)cc1", "Potency": "inconclusive: 15.8 µM [inhibitor, partial curve]"}, {"smiles": "CCOc1ccc(-c2cc3nc(C4CCN(C(=O)OC(C)(C)C)CC4)c(C(=O)O)cn3n2)cc1", "Potency": "inconclusive: 12.6 µM [inhibitor, full curve, poor fit]"}, {"smiles": "Cc1ccc(SCC(Cc2ccccc2)N2CCN(C)CCC2=O)cc1", "note": "(configuration not stated)", "Potency": "inactive"}, {"smiles": "CCOC(=S)SCC(=O)Nc1nc(-c2ccccc2)cs1", "Potency": "inactive"}, {"smiles": "CCC(=O)c1ccc(OCc2ccc(C(=O)OC)o2)c(OC)c1", "Potency": "inconclusive: 35.5 µM [inhibitor, partial curve]"}, {"smiles": "O=C(/C(=N/N=C/c1ccc(O)c(O)c1O)c1ccccc1)c1ccccc1", "Potency": "inconclusive: 35.5 µM [inhibitor, single point]"}, {"smiles": "CC(=O)Nc1ccc(Nc2ncnc3c2c(-c2ccccc2)cn3-c2ccc(C)c(Cl)c2)cc1", "Potency": "inconclusive: 15.8 µM [inhibitor, partial curve]"}, {"smiles": "Cc1cc(CN2CCCCC2C(=O)Nc2ccc(Oc3cccnc3)cc2)oc1C", "note": "(configuration not stated)", "Potency": "inconclusive: 39.8 µM [inhibitor, single point]"}, {"smiles": "Cc1ccsc1C(=O)OCC(=O)N1CCc2ccccc2C1", "Potency": "inconclusive: 20 µM [inhibitor, partial curve]"}, {"smiles": "COc1ccc(C)cc1-n1nnnc1SCC(=O)c1ccc2c(c1)OCCO2", "Potency": "inconclusive: 35.5 µM [inhibitor, single point]"}, {"smiles": "O=C(COc1ccccc1)N1CCN(S(=O)(=O)c2ccc(Br)cc2)CC1", "Potency": "inactive"}, {"smiles": "COc1ccc(CNc2ccc3c(c2)CCC3)cc1OC", "Potency": "inconclusive: 31.6 µM [inhibitor, partial curve]"}, {"smiles": "CCOC(=O)c1cc(C)n(CCc2ccccc2)c1C", "Potency": "inactive"}, {"smiles": "Cc1cc(C)nc(SCc2ccc(Cl)cc2)n1", "Potency": "inconclusive: 25.1 µM [inhibitor, partial curve]"}, {"smiles": "Cc1c(OCC(=O)OC(C)(C)C)ccc2c3c(c(=O)oc12)CCC3", "Potency": "inconclusive: 14.1 µM [inhibitor, partial curve]"}, {"smiles": "Fc1ccc(N2CCN(Cc3cccn3-c3nnc(N4CCN(C5CCCCC5)CC4)s3)CC2)cc1", "Potency": "inconclusive: 8.91 µM [inhibitor, single point]"}, {"smiles": "CCc1ccc(-c2nc(CSCC(=O)N3CCN(c4ccc(F)cc4)CC3)c(C)o2)cc1", "Potency": "inactive"}, {"smiles": "CC(=O)NC(=O)COC(=O)/C=C/c1c(C)nn(Cc2c(Cl)cccc2Cl)c1Cl", "Potency": "inconclusive: 3.98 µM [inhibitor, full curve, poor fit]"}, {"smiles": "CCCCCN(C(=O)NC(=O)Nc1ccccc1C)S(=O)(=O)c1ccccc1", "Potency": "inconclusive: 22.4 µM [inhibitor, partial curve]"}, {"smiles": "Cc1ccccc1C(=O)c1cccn1CC(=O)NCc1cccc(Cl)c1", "Potency": "inconclusive: 14.1 µM [inhibitor, partial curve]"}, {"smiles": "O=C(CN1CCCCCC1)Nc1ccccc1[N+](=O)[O-]", "Potency": "inconclusive: 20 µM [inhibitor, partial curve]"}, {"smiles": "CC1(C)N=C(C(=O)c2ccccc2)N(O)C1(C)O", "note": "(configuration not stated)", "Potency": "inconclusive: 25.1 µM [inhibitor, partial curve]"}, {"smiles": "COc1ccc(C(=O)NCC(=O)OCC(=O)N2CCCc3ccccc32)cc1", "Potency": "inconclusive: 25.1 µM [inhibitor, single point]"}, {"smiles": "CCCOC(=S)Nc1ccccc1", "Potency": "inconclusive: 22.4 µM [inhibitor, partial curve]"}, {"smiles": "Cc1ccsc1/C=C1\\SC(N)=NC1=O", "Potency": "inconclusive: 39.8 µM [inhibitor, partial curve]"}, {"smiles": "CCS(=O)(=O)c1ccc2oc(SCC(=O)NC(C)C3CC4CCC3C4)nc2c1", "note": "(configuration not stated)", "Potency": "inconclusive: 50.1 µM [inhibitor, single point]"}, {"smiles": "COc1ccc(/C=N/NC(=S)Nc2ccccc2)cc1COc1ccc(F)cc1F", "Potency": "inactive"}, {"smiles": "COc1cc(-c2cc(OC)c3c(C)oc(C)c3c(=O)c2)ccc1OC(=O)c1cccc(Cl)c1", "Potency": "inactive"}, {"smiles": "O=c1c2ncn([C@@H]3O[C@@H]4COP(=O)(O)O[C@H]4[C@H]3O)c2nc2[nH]c(-c3ccccc3)cn12", "Potency": "inactive"}, {"smiles": "O=S(=O)(Nc1ccc(-c2ccc(N3CCCC3)nn2)cc1)c1cc(F)ccc1F", "Potency": "inactive"}, {"smiles": "COC(=O)C(C)(C)NC(=O)c1cccs1", "Potency": "inconclusive: 14.1 µM [inhibitor, partial curve]"}, {"smiles": "CCOC(=O)/C(C#N)=C1\\CC2CCC1(C)C2(C)C", "note": "(configuration not stated)", "Potency": "inconclusive: 35.5 µM [inhibitor, partial curve]"}, {"smiles": "Cc1ccc2nc3c(c(Nc4ccc(O)cc4)c2c1)CCC3", "Potency": "inactive"}, {"smiles": "CN1CCN(C(CNC(=O)C(=O)Nc2cccc(Cl)c2)c2ccc3c(c2)OCO3)CC1", "note": "(configuration not stated)", "Potency": "inconclusive: 39.8 µM [inhibitor, partial curve, poor fit]"}, {"smiles": "C[C@H](N)C(=O)OCc1ccc([N+](=O)[O-])cc1", "Potency": "inactive"}, {"smiles": "CC(C)(C)C(=O)COC(=O)c1cc(-c2cccnc2)nc2ccccc12", "Potency": "inconclusive: 25.1 µM [inhibitor, partial curve]"}, {"smiles": "O=C1Nc2ccccc2C1c1ncc(C(F)(F)F)cc1Cl", "note": "(configuration not stated)", "Potency": "inconclusive: 28.2 µM [inhibitor, single point]"}, {"smiles": "C=CCn1c(Cc2cccs2)nnc1SCC(=O)Nc1cc(OC)cc(OC)c1", "Potency": "inconclusive: 31.6 µM [inhibitor, partial curve]"}]}]}
